Measured values as given in the supplement of paper PMC8728848.
This is one part of the list.

Key:
Assay in all cases: glycan array binding signal (z-score within array); higher = stronger binding
Details in all cases: glycan notation: IUPAC condensed, linker removed
[1] = biological target: Gal(b1-3)GlcNAc(b1-2)Man(a1-3)[Gal(b1-3)GlcNAc(b1-2)Man(a1-6)]Man(b1-4)GlcNAc(b1-4)[Fuc(a1-6)]GlcNAc
Summary of the method: (§1)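 Negative Z-scores can be read as non-binding. The Z-score is calculated within each array and then averaged across arrays of one protein sequence at different concentrations or buffers and across linkers. Arrays, 3228 in all, were curated from the Consortium for Functional Glycomics database and kept only where the protein sequence was available.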

[2] = biological target: Gal(b1-3)GlcNAc(b1-2)Man(a1-3)[GlcNAc(b1-4)][Gal(b1-3)GlcNAc(b1-2)Man(a1-6)]Man(b1-4)GlcNAc(b1-4)GlcNAc
Summary of the method: as §1

[3] = biological target: Gal(b1-3)GlcNAc(b1-2)[Gal(b1-3)GlcNAc(b1-6)]Man(a1-6)[Gal(b1-3)GlcNAc(b1-2)Man(a1-3)]Man(b1-4)GlcNAc(b1-4)GlcNAc
Summary of the method: as §1

[4] = biological target: Gal(b1-3)GlcNAc(b1-3)Gal(b1-3)GlcNAc
Summary of the method: as §1

[5] = biological target: Gal(b1-3)GlcNAc(b1-3)Gal(b1-4)Glc
Summary of the method: as §1

[6] = biological target: Gal(b1-3)GlcNAc(b1-3)Gal(b1-4)GlcNAc
Summary of the method: as §1

[7] = biological target: Gal(b1-3)GlcNAc(b1-3)Gal(b1-4)GlcNAc(b1-2)Man(a1-3)[Gal(b1-3)GlcNAc(b1-3)Gal(b1-4)GlcNAc(b1-2)Man(a1-6)]Man(b1-4)GlcNAc(b1-4)GlcNAc
Summary of the method: as §1

[8] = biological target: Gal(b1-3)GlcNAc(b1-3)Gal(b1-4)GlcNAc(b1-2)[Gal(b1-3)GlcNAc(b1-3)Gal(b1-4)GlcNAc(b1-6)]Man(a1-6)[Gal(b1-3)GlcNAc(b1-3)Gal(b1-4)GlcNAc(b1-2)Man(a1-3)]Man(b1-4)GlcNAc(b1-4)[Fuc(a1-6)]GlcNAc
Summary of the method: as §1

[9] = biological target: Gal(b1-3)GlcNAc(b1-3)Gal(b1-4)GlcNAc(b1-3)Gal(b1-4)GlcNAc(b1-2)[Gal(b1-3)GlcNAc(b1-3)Gal(b1-4)GlcNAc(b1-3)Gal(b1-4)GlcNAc(b1-6)]Man(a1-6)[Gal(b1-3)GlcNAc(b1-3)Gal(b1-4)GlcNAc(b1-3)Gal(b1-4)GlcNAc(b1-2)Man(a1-3)]Man(b1-4)GlcNAc(b1-4)[Fuc(a1-6)]GlcNAc
Summary of the method: as §1

[10] = biological target: Gal(b1-3)GlcNAc(b1-3)Gal(b1-4)GlcNAc(b1-6)[Gal(b1-3)GlcNAc(b1-3)]Gal(b1-4)Glc
Summary of the method: as §1

[11] = biological target: Gal(b1-3)GlcNAc(b1-3)Gal(b1-4)[Fuc(a1-3)]GlcNAc
Summary of the method: as §1

[12] = biological target: Gal(b1-3)GlcNAc(b1-3)Gal(b1-4)[Fuc(a1-3)]GlcNAc(b1-6)[Gal(b1-3)GlcNAc(b1-3)]Gal(b1-4)Glc
Summary of the method: as §1

[13] = biological target: Gal(b1-3)GlcNAc(b1-3)GalNAc
Summary of the method: as §1

[14] = biological target: Gal(b1-3)GlcNAc(b1-6)Gal(b1-4)GlcNAc
Summary of the method: as §1

[15] = biological target: Gal(b1-3)GlcNAc(b1-6)GalNAc
Summary of the method: as §1

[16] = biological target: Gal(b1-3)GlcNAc(b1-6)[Gal(b1-3)]GalNAc
Summary of the method: as §1

[17] = biological target: Gal(b1-3)GlcNAc6S
Summary of the method: as §1

[18] = biological target: Gal(b1-3)[Fuc(a1-4)]GlcNAc
Summary of the method: as §1

[19] = biological target: Gal(b1-3)[Fuc(a1-4)]GlcNAc(b1-2)Man
Summary of the method: as §1

[20] = biological target: Gal(b1-3)[Fuc(a1-4)]GlcNAc(b1-2)Man(a1-3)[Gal(b1-3)[Fuc(a1-4)]GlcNAc(b1-2)Man(a1-6)]Man(b1-4)GlcNAc(b1-4)[Fuc(a1-6)]GlcNAc
Summary of the method: as §1

[21] = biological target: Gal(b1-3)[Fuc(a1-4)]GlcNAc(b1-3)Gal(b1-3)[Fuc(a1-4)]GlcNAc
Summary of the method: as §1

[22] = biological target: Gal(b1-3)[Fuc(a1-4)]GlcNAc(b1-3)Gal(b1-4)[Fuc(a1-3)]GlcNAc
Summary of the method: as §1

[23] = biological target: Gal(b1-3)[Fuc(a1-4)]GlcNAc(b1-6)GalNAc
Summary of the method: as §1

[24] = biological target: Gal(b1-3)[GlcNAc(b1-6)]GalNAc
Summary of the method: as §1

[25] = biological target: Gal(b1-3)[Neu5Ac(a2-6)]GalNAc
Summary of the method: as §1

[26] = biological target: Gal(b1-3)[Neu5Ac(a2-6)]GlcNAc(b1-4)Gal(b1-4)Glc
Summary of the method: as §1

[27] = biological target: Gal(b1-3)[Neu5Ac(b2-6)]GalNAc
Summary of the method: as §1

[28] = biological target: Gal(b1-4)Gal
Summary of the method: as §1

[29] = biological target: Gal(b1-4)GalNAc(a1-3)[Fuc(a1-2)]Gal(b1-4)GlcNAc
Summary of the method: as §1

[30] = biological target: Gal(b1-4)GalNAc(b1-3)[Fuc(a1-2)]Gal(b1-4)GlcNAc
Summary of the method: as §1

[31] = biological target: Gal(b1-4)Glc
Summary of the method: as §1

[32] = biological target: Gal(b1-4)Glc6S
Summary of the method: as §1

[33] = biological target: Gal(b1-4)GlcNAc
Summary of the method: as §1

[34] = biological target: Gal(b1-4)GlcNAc(a1-6)Gal(b1-4)GlcNAc
Summary of the method: as §1

[35] = biological target: Gal(b1-4)GlcNAc(b1-2)Man
Summary of the method: as §1

[36] = biological target: Gal(b1-4)GlcNAc(b1-2)Man(a1-3)Man(b1-4)GlcNAc(b1-4)GlcNAc
Summary of the method: as §1

[37] = biological target: Gal(b1-4)GlcNAc(b1-2)Man(a1-3)[Gal(b1-4)GlcNAc(b1-2)Man(a1-6)]Man(b1-4)GlcNAc(b1-4)GlcNAc
Summary of the method: as §1

[38] = biological target: Gal(b1-4)GlcNAc(b1-2)Man(a1-3)[Gal(b1-4)GlcNAc(b1-2)Man(a1-6)]Man(b1-4)GlcNAc(b1-4)[Fuc(a1-6)]GlcNAc
Summary of the method: as §1

[39] = biological target: Gal(b1-4)GlcNAc(b1-2)Man(a1-3)[Gal(b1-4)GlcNAc(b1-2)Man(a1-6)][Gal(b1-4)GlcNAc(b1-4)]Man(b1-4)GlcNAc(b1-4)[Fuc(a1-6)]GlcNAc
Summary of the method: as §1

[40] = biological target: Gal(b1-4)GlcNAc(b1-2)Man(a1-3)[Gal(b1-4)GlcNAc(b1-2)Man(a1-6)][GlcNAc(b1-4)]Man(b1-4)GlcNAc(b1-4)[Fuc(a1-6)]GlcNAc
Summary of the method: as §1

[41] = biological target: Gal(b1-4)GlcNAc(b1-2)Man(a1-3)[GlcNAc(b1-2)Man(a1-6)]Man(b1-4)GlcNAc(b1-4)GlcNAc
Summary of the method: as §1

[42] = biological target: Gal(b1-4)GlcNAc(b1-2)Man(a1-3)[GlcNAc(b1-4)][Gal(b1-4)GlcNAc(b1-2)Man(a1-6)]Man(b1-4)GlcNAc(b1-4)GlcNAc
Summary of the method: as §1

[43] = biological target: Gal(b1-4)GlcNAc(b1-2)Man(a1-3)[Man(a1-6)]Man(b1-4)GlcNAc(b1-4)GlcNAc
Summary of the method: as §1

[44] = biological target: Gal(b1-4)GlcNAc(b1-2)Man(a1-6)Man(b1-4)GlcNAc(b1-4)GlcNAc
Summary of the method: as §1

[45] = biological target: Gal(b1-4)GlcNAc(b1-2)Man(a1-6)[GlcNAc(b1-2)Man(a1-3)]Man(b1-4)GlcNAc(b1-4)GlcNAc
Summary of the method: as §1

B1: PX14375F-bfa-539-21-539 (Bacteroides fragilis) (protein)
chain: EDFLQKDPPSSPSQSVFWQKKSDFESALAGTYSVMYSGVFSQIMPCLDGLTDNAIVQHSEGTYGWAKTIAQGDLTPNQGGFVTDIYGNCYKGIARVHILMEQLDQYTGSDISADEKKFMLAQCKALRGYFYSWLYQCYKEVPVVTQSLDLNTMYQPKATRAEVLNRVMTDYDEAISELPDKLYSDSQTSGRFTVSAVKALKARILLFDAYDSNGKAISSKMEEVLTLLQSIKGYSLAARVRDNFISEKQLASPEIMFSVRFLRPNLTHSMDLYYGAWAVLDPTRNMVDAFECTDGKPWGESPLTVRPDESILYGNDDALKKAERAKMFMNRDRRLYESVNHSMMANFVDDGFKDEEVQVNESNNKGPTGFSALKYVQPTDVTPGYSTVSDADIVVLRYAHVLLMIAEAENEAHGATTTALNAINEVRTRSGQPAIEAGISQDDLRERIRNEWRIETCFEGLRYFQLKRWKLMDKRVNGVEDPAYPGYIKVYKPAFEFFPIPQSEIDKAGGVLKQDPAYE
For B1, the “glycan array binding signal (z-score)” value [1] was 1.23, the “glycan array binding signal (z-score)” value [2] was 0.218 and the “glycan array binding signal (z-score)” value [3] was -0.343. For the same binder, the “glycan array binding signal (z-score)” value [4] was -0.334, the “glycan array binding signal (z-score)” value [5] was 0.015 and the “glycan array binding signal (z-score)” value [6] was -0.365. For the same binder, the “glycan array binding signal (z-score)” value [7] was -0.069, the “glycan array binding signal (z-score)” value [8] was 0.153 and the “glycan array binding signal (z-score)” value [9] was 2. For the same binder, the “glycan array binding signal (z-score)” value [10] was -0.107, the “glycan array binding signal (z-score)” value [11] was -0.084 and the “glycan array binding signal (z-score)” value [12] was -0.522. For the same binder, the “glycan array binding signal (z-score)” value [13] was -0.912, the “glycan array binding signal (z-score)” value [14] was 0.171 and the “glycan array binding signal (z-score)” value [15] was 0.066. The “glycan array binding signal (z-score)” value [16] was 0.776, the “glycan array binding signal (z-score)” value [17] was -0.205 and the “glycan array binding signal (z-score)” value [18] was -0.323. For the same binder, the “glycan array binding signal (z-score)” value [19] was -0.404, the “glycan array binding signal (z-score)” value [20] was 2.29 and the “glycan array binding signal (z-score)” value [21] was -0.301. The “glycan array binding signal (z-score)” value [22] was -0.084, the “glycan array binding signal (z-score)” value [23] was 0.122 and the “glycan array binding signal (z-score)” value [24] was 0.297. The “glycan array binding signal (z-score)” value [25] was -0.246, the “glycan array binding signal (z-score)” value [26] was -0.711 and the “glycan array binding signal (z-score)” value [27] was -0.427. For the same binder, the “glycan array binding signal (z-score)” value [28] was -0.203, the “glycan array binding signal (z-score)” value [29] was -0.015 and the “glycan array binding signal (z-score)” value [30] was -0.125. The “glycan array binding signal (z-score)” value [31] was -0.577, the “glycan array binding signal (z-score)” value [32] was 0.083 and the “glycan array binding signal (z-score)” value [33] was -0.252. For the same binder, the “glycan array binding signal (z-score)” value [34] was -0.526, the “glycan array binding signal (z-score)” value [35] was 0.025 and the “glycan array binding signal (z-score)” value [36] was 1.62. For the same binder, the “glycan array binding signal (z-score)” value [37] was -0.389, the “glycan array binding signal (z-score)” value [38] was -0.146 and the “glycan array binding signal (z-score)” value [39] was -0.27. The “glycan array binding signal (z-score)” value [40] was -0.512, the “glycan array binding signal (z-score)” value [41] was -0.38 and the “glycan array binding signal (z-score)” value [42] was -0.811. For the same binder, the “glycan array binding signal (z-score)” value [43] was 0.054, the “glycan array binding signal (z-score)” value [44] was 1.01 and the “glycan array binding signal (z-score)” value [45] was 0.713.
